Results as given in the supplement of paper PMC8728848.
The other results are listed elsewhere or left out.

Legend:
Experiment in all cases: glycan array binding signal (z-score within array); higher = stronger binding
Details in all cases: glycan notation: IUPAC condensed, linker removed
[1] = target: Gal(b1-4)GalNAc(b1-3)[Fuc(a1-2)]Gal(b1-4)GlcNAc
Summary of the method: (§1)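 Glycan array binding is given as a within-array Z-score, which can be read as non-binding when negative. The arrays, 3228 of them, came from the Consortium for Functional Glycomics database and were retained only where the protein sequence was available. Z-scores were averaged across arrays of the same protein sequence at different concentrations or buffers and across linkers.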

[2] = target: Gal(b1-4)Glc
Summary of the method: as §1

[3] = target: Gal(b1-4)Glc6S
Summary of the method: as §1

[4] = target: Gal(b1-4)GlcNAc
Summary of the method: as §1

[5] = target: Gal(b1-4)GlcNAc(a1-6)Gal(b1-4)GlcNAc
Summary of the method: as §1

[6] = target: Gal(b1-4)GlcNAc(b1-2)Man
Summary of the method: as §1

[7] = target: Gal(b1-4)GlcNAc(b1-2)Man(a1-3)Man(b1-4)GlcNAc(b1-4)GlcNAc
Summary of the method: as §1

[8] = target: Gal(b1-4)GlcNAc(b1-2)Man(a1-3)[Gal(b1-4)GlcNAc(b1-2)Man(a1-6)]Man(b1-4)GlcNAc(b1-4)GlcNAc
Summary of the method: as §1

[9] = target: Gal(b1-4)GlcNAc(b1-2)Man(a1-3)[Gal(b1-4)GlcNAc(b1-2)Man(a1-6)]Man(b1-4)GlcNAc(b1-4)[Fuc(a1-6)]GlcNAc
Summary of the method: as §1

[10] = target: Gal(b1-4)GlcNAc(b1-2)Man(a1-3)[Gal(b1-4)GlcNAc(b1-2)Man(a1-6)][Gal(b1-4)GlcNAc(b1-4)]Man(b1-4)GlcNAc(b1-4)[Fuc(a1-6)]GlcNAc
Summary of the method: as §1

[11] = target: Gal(b1-4)GlcNAc(b1-2)Man(a1-3)[Gal(b1-4)GlcNAc(b1-2)Man(a1-6)][GlcNAc(b1-4)]Man(b1-4)GlcNAc(b1-4)[Fuc(a1-6)]GlcNAc
Summary of the method: as §1

[12] = target: Gal(b1-4)GlcNAc(b1-2)Man(a1-3)[GlcNAc(b1-2)Man(a1-6)]Man(b1-4)GlcNAc(b1-4)GlcNAc
Summary of the method: as §1

[13] = target: Gal(b1-4)GlcNAc(b1-2)Man(a1-3)[GlcNAc(b1-4)][Gal(b1-4)GlcNAc(b1-2)Man(a1-6)]Man(b1-4)GlcNAc(b1-4)GlcNAc
Summary of the method: as §1

[14] = target: Gal(b1-4)GlcNAc(b1-2)Man(a1-3)[Man(a1-6)]Man(b1-4)GlcNAc(b1-4)GlcNAc
Summary of the method: as §1

[15] = target: Gal(b1-4)GlcNAc(b1-2)Man(a1-6)Man(b1-4)GlcNAc(b1-4)GlcNAc
Summary of the method: as §1

[16] = target: Gal(b1-4)GlcNAc(b1-2)Man(a1-6)[GlcNAc(b1-2)Man(a1-3)]Man(b1-4)GlcNAc(b1-4)GlcNAc
Summary of the method: as §1

[17] = target: Gal(b1-4)GlcNAc(b1-2)Man(a1-6)[Man(a1-3)]Man(b1-4)GlcNAc(b1-4)GlcNAc
Summary of the method: as §1

[18] = target: Gal(b1-4)GlcNAc(b1-2)[Gal(b1-4)GlcNAc(b1-4)]Man(a1-3)[Gal(b1-4)GlcNAc(b1-2)Man(a1-6)]Man(b1-4)GlcNAc(b1-4)GlcNAc
Summary of the method: as §1

[19] = target: Gal(b1-4)GlcNAc(b1-2)[Gal(b1-4)GlcNAc(b1-4)]Man(a1-3)[Gal(b1-4)GlcNAc(b1-2)[Gal(b1-4)GlcNAc(b1-6)]Man(a1-6)]Man(b1-4)GlcNAc(b1-4)GlcNAc
Summary of the method: as §1

[20] = target: Gal(b1-4)GlcNAc(b1-2)[Gal(b1-4)GlcNAc(b1-4)]Man(a1-3)[GlcNAc(b1-4)][Gal(b1-4)GlcNAc(b1-2)Man(a1-6)]Man(b1-4)GlcNAc(b1-4)GlcNAc
Summary of the method: as §1

[21] = target: Gal(b1-4)GlcNAc(b1-2)[Gal(b1-4)GlcNAc(b1-4)]Man(a1-3)[GlcNAc(b1-4)][Gal(b1-4)GlcNAc(b1-2)[Gal(b1-4)GlcNAc(b1-6)]Man(a1-6)]Man(b1-4)GlcNAc(b1-4)GlcNAc
Summary of the method: as §1

[22] = target: Gal(b1-4)GlcNAc(b1-2)[Gal(b1-4)GlcNAc(b1-6)]Man(a1-6)[Gal(b1-4)GlcNAc(b1-2)Man(a1-3)]Man(b1-4)GlcNAc(b1-4)GlcNAc
Summary of the method: as §1

B1: Banana lectin (Musa acuminata) (protein)
chain: MNGAIKVGAWGGNGGSAFDMGPAYRIISVKIFSGDVVDAVDVTFTYYGKTETRHFGGSGGTPHEIVLQEGEYLVGMKGEFGNYHGVVVVGKLGFSTNKKSYGPFGNTGGTPFSLPIAAGKISGFFGRGGDFIDAIGVYLEP
With B1 the “glycan array binding signal (z-score)” value [1] was -0.195, the “glycan array binding signal (z-score)” value [2] was -0.193 and the “glycan array binding signal (z-score)” value [3] was -0.192. For the same binder, the “glycan array binding signal (z-score)” value [4] was -0.195, the “glycan array binding signal (z-score)” value [5] was -0.196 and the “glycan array binding signal (z-score)” value [6] was -0.189. The “glycan array binding signal (z-score)” value [7] was -0.188, the “glycan array binding signal (z-score)” value [8] was -0.161 and the “glycan array binding signal (z-score)” value [9] was -0.144. The “glycan array binding signal (z-score)” value [10] was -0.196, the “glycan array binding signal (z-score)” value [11] was -0.195 and the “glycan array binding signal (z-score)” value [12] was -0.13. For the same binder, the “glycan array binding signal (z-score)” value [13] was -0.195, the “glycan array binding signal (z-score)” value [14] was 1.08 and the “glycan array binding signal (z-score)” value [15] was -0.193. The “glycan array binding signal (z-score)” value [16] was -0.132, the “glycan array binding signal (z-score)” value [17] was 2.15 and the “glycan array binding signal (z-score)” value [18] was -0.163. The “glycan array binding signal (z-score)” value [19] was 0.448, the “glycan array binding signal (z-score)” value [20] was -0.184 and the “glycan array binding signal (z-score)” value [21] was -0.197. For the same binder, the “glycan array binding signal (z-score)” value [22] was -0.076.
